Results published in PubChem BioAssay AID493208 (National Center for Advancing Translational Sciences (NCATS), 2011).
The campaign covered roughly 44,000 compounds. About 340 (0.77%) were called active. Inconclusive results (about 5%) are left out. The call rests on the fitted dose curve; in most records, active means well fitted inhibition curve with a large enough effect; inconclusive means small, poorly fitted or top-dose-only effect; inactive means flat fitted curve, though single readings scatter. Some of the results follow.

Test: Acumen qHTS Assay for Inhibitors of the mTORC1 Signaling Pathway in MEF (Tsc2-/-, p53-/-) Cells: Sytravon;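 further: plate controls were DMSO for no effect and rapamycin for full effect; nearly all actives have a fitted effect of over 50% in size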
Conditions: phospho-rpS6 immunofluorescence/PI, 24 h; series mostly up to 38.3 µM; activity change, negative = inhibition: at the top concentration
Procedure, shortened: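 Plate MEFs (Tsc2-/-, p53-/-, empty vector) in DMEM/10% FBS; after 24 h add compound, incubate 24 h at 37 degree Celsius; fix in PFA/TX-100, block, stain phospho-rpS6 and 10 uM PI; scan at 488 nm; report % positive cells.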

Activity change, negative = inhibition, inactive:
CC(=O)c1ccc(NC(=O)COc2ccccc2-c2nc(-c3ccc(C)cc3)no2)cc1 -13.2%
Cc1ccc(-c2nnc(Nc3ccccc3O)c3ccccc23)cc1 -0.404%
O=C(Nc1cc2c(cc1C(=O)c1ccccc1Br)OCCO2)c1ccccc1 4.02%
Cc1ccc(Cl)cc1N1CCN(C(=O)c2cnn(C)c2C2CCN(C(=O)OC(C)(C)C)CC2)CC1 -1.47%
COc1cc(OC)c(NC(=O)N2CCc3c([nH]c4ccccc34)C2c2ccccc2F)cc1Cl (centres undefined) -4.93%
O=C(Nc1ccccc1F)c1ccc(Cn2nc(N3CCN(c4ccccc4)CC3)ccc2=O)o1 -2.98%
CCc1cc(C(=O)Nc2c(C)nn(Cc3ccccc3Cl)c2C)no1 -4.13%
Cc1cc(C)c(NC(=O)CN2C(=O)c3cccnc3Sc3ccccc32)c(C)c1 -3.72%
O=C(CCC(=O)N1CC2CCCN2c2ccccc21)NCc1ccc(F)cc1 (centres undefined) -6.81%
COc1ccc(C(=O)NCC(c2ccc3c(c2)OCO3)N2CCN(C)CC2)cc1 (centres undefined) -3.23%
CCOc1ccc(CCNC(=O)c2nnc(Cc3ccc(Cl)cc3Cl)o2)cc1OCC 3.44%
COc1cc(OC)c(N(C)C(=O)c2c(C)oc3ncnc(N4CCCCC4)c23)cc1Cl -4.26%
CCn1cc(/C=C(\NC(=O)c2ccc(C)cc2)C(=O)NCCCn2ccnc2)c2ccccc21 -15.1%
CCOC(=O)c1cc2c(=O)n3ccccc3nc2n(CC2CCCO2)c1=NC(=O)c1ccccc1C (centres undefined) 7.06%
Cc1ccc2c(=O)cc(C(=O)NCc3ccccc3)oc2c1 -16.6%
COc1ccc(CNC(=O)C2CCCN(S(=O)(=O)c3ccc4c(ccn4C)c3)C2)c(OC)c1 (centres undefined) -7.02%
CCOc1ccc2nc(N3CCN(C(=O)c4ccco4)CC3)sc2c1 1.24%
COc1ccc(NC(C)=O)cc1NC(=O)C1(c2cccs2)CCOCC1 -8.39%
CCc1ccc(-n2nc(CO)c(C(=O)NCCc3ccccc3)n2)cc1 2.85%
O=C(CSc1nc2c([nH]c3ccccc32)c(=O)n1-c1ccc(F)cc1)N1CCc2ccccc21 -9.09%
Cc1ccc(C)c(N2CCN(C(=O)Cc3c(C(=O)O)c(C)cn3C)CC2)c1 2.34%
Cc1cc(C)cc(-n2c(SCC(=O)N3CCC(C)CC3)nc3c([nH]c4ccccc43)c2=O)c1 -21.4%
COc1cccc(C(=O)N2CCCCC2CCN2CCCCC2)c1 (centres undefined) -4.26%
Cc1oc(-c2ccccc2F)nc1CS(=O)CC(=O)NC(C)C (centres undefined) -7.64%
COc1ccc(OC)c(NC(=O)c2cccc3c2C(=O)N(C2CCCCC2)C3)c1 2.04%
Cc1cccc(Cn2c(CNS(=O)(=O)c3ccc(C(C)C)cc3)nc3cccnc32)c1 1.06%
COc1ccc(-c2nc3n(n2)C(c2ccccc2OC)C(C(=O)Nc2cccnc2)=C(C)N3)cc1 (centres undefined) -13.9%
CCOc1ccccc1NC(=O)c1c2c(nc3ccccc13)C(=O)N(C1CCCCC1)C2 0%
CCOc1ccc(C(=O)Nc2ccc3oc(-c4ccc(C)cc4C)nc3c2)cc1Br 2.87%
CCOc1ccc(NC(=O)Cn2c(=O)n(CCCCC(=O)NCCc3ccc(Cl)cc3)c(=O)c3ccccc32)cc1 -10.4%
O=C(Nc1cccc(Cl)c1)N1CC2CCCN2c2ccccc21 (centres undefined) -15.4%
O=C(C1CCC(CNS(=O)(=O)c2ccc(Br)s2)CC1)N1CCN(c2ccc(F)cc2)CC1 (centres undefined) -16.3%
CCc1ccccc1NC(=O)CC1NCCNC1=O (centres undefined) -3.3%
Cc1ccc(NS(=O)(=O)c2ccc3c(c2)N(C)C(=O)CC(=O)N3C)cc1Cl 2.18%
Cc1ccc(-n2c(=O)c3ccc(C(=O)NCc4ccco4)cc3n(CC(=O)Nc3ccc(C)c(F)c3)c2=O)cc1 -5.54%
CCC1CN(C(=O)N2CCC(C(=O)N3CCN(c4ccccc4)CC3)CC2)c2ccccc2O1 (centres undefined) 3.66%
CCOc1ccc(-n2c(SCC(=O)NCc3ccccc3)nc3n[nH]c(C)c3c2=N)cc1 -12.4%
CCOC(=O)N1CCc2c(sc(NCc3ccc(N(CC)CC)cc3)c2C(=O)Nc2cc(OC)ccc2OC)C1 -0.694%
Cc1cc(C)n(C(C)CC(=O)Nc2ccc(Cl)cc2C)n1 (centres undefined) 7.97%
COc1cccc(CN2C(=O)C3(SCC(=O)N3c3ccc(C)c(Cl)c3)c3ccccc32)c1 (centres undefined) -4.82%
CC1Cc2cc(S(=O)(=O)CCC(=O)Nc3ccccc3F)ccc2N1C(=O)C1CC1 (centres undefined) -3.19%
CCOC(=O)c1cc(-c2ccc(C)cc2)n(CCCC(=O)Nc2cc(C)ccc2C)c1 -7.21%
CCCCC(=O)N1CCc2cc(OC)c(OC)cc2C1COc1ccc(C(=O)OCC)cc1 (centres undefined) 10.9%
Cc1cccc(C(=O)n2nc(C)c(S(=O)(=O)N3CCOCC3)c2C)c1 -7.66%
CCOc1ccccc1NS(=O)(=O)c1cc2[nH]c(=O)c(=O)[nH]c2cc1C 1.06%
COc1ccc(Cn2ccc3nc(C)c(C(=O)Nc4cc(OC)c(OC)c(OC)c4)cc3c2=O)cc1 -10.9%
CCOc1ccc(Sc2cc(C(=O)NCc3ccc(C)cc3)c3ccccc3n2)cc1 0.294%
COCCCn1c(=N)c(C(=O)NC2CCCC2)cc2c(=O)n3cccc(C)c3nc21 -0.505%
Nc1c(C(=O)NCc2cccs2)nnn1CC(=O)Nc1cccc(F)c1 -8.07%
COC(=O)c1scc(-c2ccc(C)cc2)c1S(=O)(=O)N1CCN(c2ccc(F)cc2)CC1 -1.39%
Cc1cc(C)c(S(=O)(=O)NCCc2sc3nc(-c4ccc(F)cc4)nn3c2C)c(C)c1 -0.445%
CCC1CCCCN1C(=O)c1c[nH]c2ccc(S(=O)(=O)Nc3cccc(OC)c3)cc2c1=O (centres undefined) 0.745%
O=C(NCc1ccco1)c1ccc2c(c1)N(Cc1ccccc1)C(=O)c1ccccc1S2 2.64%
O=C(NC1CCCCC1)c1ccc(CSc2nc3cccnc3n2Cc2cccc(F)c2)cc1 -0.759%
Cc1cc(C)cc(-n2ccn(CC(=O)c3ccc(F)cc3)c(=O)c2=O)c1 4%
CCOc1ccc(NC(=O)CCc2c(C)nc3cc(-c4ccccc4OC)nn3c2C)cc1 -5.76%
COC(=O)c1ccc(CSc2c(C(C)C)cnc3c2c(=O)n(C)c(=O)n3C)cc1 10.7%
Cc1c(NC(=O)Nc2ccc(Cl)c(Cl)c2)sc2nc3n(c(=O)c12)CCC(C)CC3 (centres undefined) -3.9%
Cc1ccc(N(C)S(=O)(=O)c2ccc3[nH]c(=O)ccc3c2)cc1 -7.39%
O=C(O)c1ccc(NS(=O)(=O)c2ccc(Cl)c(C(=O)Nc3ccccc3)c2)cc1 -8.87%
Cc1ccc(NC(=O)c2sc3ncnc(N(C)C4CCCCC4)c3c2C)c(C)c1 1.72%
O=C(c1ccc(CS(=O)(=O)c2ccc(Br)cc2)o1)N1CCN(c2ccc(F)cc2)CC1 -12.9%
COc1ccc(NC(=O)c2cnn(-c3ccc(C)c(C)c3)c2C2CCNCC2)cc1OC -4.56%
O=C(Nc1nc2n(n1)C(c1ccc(F)cc1)C=C(c1ccc(Cl)cc1)N2)c1ccc([N+](=O)[O-])cc1 (centres undefined) 1.72%
Cc1cccc(C2=Nc3ccccc3N=C(c3cc(Cl)ccc3O)C2)c1 16.1%
Cc1oc2c(cc(NS(=O)(=O)c3ccc(C(C)C)cc3)c3ccccc32)c1C(=O)OCc1ccccc1 -7.43%
O=C(Nc1cccc(Br)c1)N1CCN2CCCCC2C1 (centres undefined) 0.0523%
CCCNC(=O)Cn1nc(-c2ccc(OC)cc2)c2cnc3ccc(F)cc3c21 -5.4%
COc1ccc(OC)c(CNC(=O)c2cc3c(Cl)nc4ccccc4c3s2)c1 -17.9%
Cc1cccc(NC(=O)/C(C#N)=C/c2ccco2)c1 -4.32%
CCOc1ccc(-n2c(C)nc3cc(C(=O)NC4CCCC4)ccc32)cc1 -0.681%
COc1ccccc1CC(=O)Nc1ccc2nc(Nc3cccc(C(F)(F)F)c3)cc(C)c2c1 -6.73%
COc1ccc(CNC(=O)Cn2c(=O)n3nc(-c4ccc(OC)cc4)nc3c3ccccc32)cc1 -4.51%
COc1ccc(NC(=O)C(c2ccccc2)N(C)C(=O)/C=C\c2ccc3c(c2)OCO3)cc1 (centres undefined) -23.4%
CCOc1ccc(C(=O)Nc2ccc3nc(Nc4cccc(C(F)(F)F)c4)cc(C)c3c2)cc1OCC 0.941%
COc1ccc(C(CC(=O)Nc2cc(Cl)c(OC)cc2OC)N2Cc3ccccc3C2=O)cc1 (centres undefined) -3.92%
COc1ccc(-c2c(C)nn3c(C(F)(F)F)cc(-c4ccc(C)cc4)nc23)cc1 -0.0881%
CCOc1ccc(NC(=O)N2CC3CCCN3c3ccccc32)cc1 (centres undefined) -6.9%
CC(=O)NNc1ncnc2c1cnn2-c1ccccc1 4.83%
Cc1ccccc1NS(=O)(=O)c1ccc2[nH]cc(C(=O)NCCc3ccccc3)c(=O)c2c1 0.166%
COC(=O)c1cnc(N2CCN(c3ccc(OC)cc3)CC2)c2ccccc12 5.08%
CCCCc1ccc(NC(=O)CSc2nc3ccccc3nc2N2CCCCC2)cc1 -2.4%
CCOC(=O)c1ccc(NC(=O)CS(=O)(=O)Cc2nc(-c3ccc(C)cc3)oc2C)cc1 -7.95%
COC(=O)c1c(-c2ccc(Cl)cc2)noc1N1CCN(c2ccc(C(C)=O)cc2)CC1 -15.1%
CCCNC(=O)CCc1c(C)nc2nc(CNC(=O)c3ccccc3)nn2c1C -5.56%
CCOc1ccc(NC(=O)C(CC)n2nc(C)c3c(C)n(-c4ccccc4)nc3c2=O)cc1 (centres undefined) 0.108%
Cc1ccc(NC(=O)CN2C(=O)CC(c3ccco3)Sc3ccccc32)cc1Cl (centres undefined) 0.997%
COc1cc(OC)c(NC(=O)Nc2ccc3c(c2)N(C)C(=O)c2ccccc2S3)cc1Cl -18.5%
Cc1ccc(-c2onc(C)c2C)cc1S(=O)(=O)N1CCN(c2ccccc2F)CC1 5.41%
COc1cc(OC)cc(-n2c(=O)c3sccc3n(Cc3ccc(F)cc3)c2=O)c1 -1.66%
COc1cc(C(CC(=O)NCc2ccccc2Cl)N2Cc3ccccc3C2=O)cc(OC)c1OC (centres undefined) -0.283%
COc1cccc(NC(=O)CCNC(=O)Cn2cnc3ccccc3c2=O)c1 1.85%
CCn1c2ccccc2c2cc(CN3CCN(Cc4cccc(Cl)c4)CC3)ccc21 -9.35%
COC(=O)c1ccccc1NC(=O)CCCn1nc(C)c2c(C)n(-c3ccccc3)nc2c1=O -3.62%
